Data published in article PMC4336329 (PLoS ONE, 2015).
In all, about 310,000 compounds went through this assay and about 2,200 (0.71%) showed an effect of 50% or more. The effect is printed as a negative number. Some of the results follow.

Molecular target: human ether-à-go-go-related gene (hERG) potassium channel (human, UniProt Q12809)
Assay: primary screen, population patch clamp on CHO cells stably expressing hERG

Chain of human ether-à-go-go-related gene (hERG) potassium channel (Q12809 whole entry, looked up): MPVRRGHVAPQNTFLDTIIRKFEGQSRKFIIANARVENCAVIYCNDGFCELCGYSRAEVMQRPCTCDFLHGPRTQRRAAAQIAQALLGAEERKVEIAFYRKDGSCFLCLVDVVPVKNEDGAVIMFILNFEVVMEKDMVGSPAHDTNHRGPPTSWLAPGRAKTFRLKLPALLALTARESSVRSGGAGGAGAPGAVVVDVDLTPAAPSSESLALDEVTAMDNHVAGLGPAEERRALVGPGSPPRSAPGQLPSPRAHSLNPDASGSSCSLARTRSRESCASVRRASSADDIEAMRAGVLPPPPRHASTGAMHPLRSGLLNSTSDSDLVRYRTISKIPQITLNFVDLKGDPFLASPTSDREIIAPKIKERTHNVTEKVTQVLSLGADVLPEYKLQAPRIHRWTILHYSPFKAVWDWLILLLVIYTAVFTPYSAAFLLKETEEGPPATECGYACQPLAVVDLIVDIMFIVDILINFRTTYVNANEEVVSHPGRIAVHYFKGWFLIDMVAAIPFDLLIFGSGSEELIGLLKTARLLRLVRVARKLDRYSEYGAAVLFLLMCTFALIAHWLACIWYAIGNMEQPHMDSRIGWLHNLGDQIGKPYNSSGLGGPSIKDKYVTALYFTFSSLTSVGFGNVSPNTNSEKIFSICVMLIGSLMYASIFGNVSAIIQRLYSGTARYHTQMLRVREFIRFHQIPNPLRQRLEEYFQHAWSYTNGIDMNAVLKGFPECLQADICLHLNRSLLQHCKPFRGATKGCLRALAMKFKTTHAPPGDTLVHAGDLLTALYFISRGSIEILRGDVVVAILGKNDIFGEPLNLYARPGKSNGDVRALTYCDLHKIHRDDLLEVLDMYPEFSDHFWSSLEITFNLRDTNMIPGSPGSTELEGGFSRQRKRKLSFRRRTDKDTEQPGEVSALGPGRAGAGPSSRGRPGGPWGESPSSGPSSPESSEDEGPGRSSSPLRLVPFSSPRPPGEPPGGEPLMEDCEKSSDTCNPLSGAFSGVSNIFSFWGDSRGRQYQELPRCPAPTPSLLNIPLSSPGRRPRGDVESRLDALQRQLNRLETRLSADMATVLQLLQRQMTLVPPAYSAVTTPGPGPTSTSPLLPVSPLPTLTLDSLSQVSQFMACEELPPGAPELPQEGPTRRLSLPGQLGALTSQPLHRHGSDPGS

Row | SMILES | hERG current change (%, negative = inhibition) at 1uM
1 | Cn1c(=O)n(CCc2ccccc2)c(=O)c2c1ncn2Cc1ccccc1 | 11.8%
2 | COc1cc(-c2noc(C)c2C#Cc2ccsc2)cc(OC)c1OC | 12.2%
3 | CCCC(=O)Nc1c2c(nn1-c1ccc(F)cc1)CS(=O)(=O)C2 | 9.12%
4 | CC(=O)OC(C(=O)NC1CCCCC1)c1ccncc1 (stereo not shown) | 10.1%
5 | O=C(NNC(=O)C1CCC1)c1ccccc1 | 6.93%
6 | CC(=NC(C)C)C1=C(O)CCC1=O | 11.3%
7 | O=C1NC(=O)C2(Cc3ccccc3N3CCCC32)C(=O)N1Cc1ccccc1 (stereo not shown) | -0.0862%
8 | C=CCOc1c2ccc(C(=O)NCCc3ccc(C)cc3)cc2nn1C | 5.19%
9 | COc1ccc(/C=C/C(=O)OCc2nc3ccccc3c(=O)[nH]2)c(OC)c1 | 6.43%
10 | COc1ccc2c(c1)c(CC(=O)Nc1ccc(C)cc1)c(C)n2C(=O)c1ccc(Cl)cc1 | -3.28%
11 | CCC12CN3CCN(CC(C3)/C1=N\O)C2 | -2.57%
12 | OCC1(Cc2cccc(Cl)c2)CCCN(Cc2ccc(F)c(F)c2)C1 (stereo not shown) | 3.44%
13 | COc1cc2ccccc2cc1C(=O)NCCCN1CCOCC1 | 3.68%
14 | Cc1ccccc1OCCN1C(=O)NC2(CCc3ccccc32)C1=O (stereo not shown) | 3.63%
15 | CC(=O)c1ccc(NC(=O)c2ccc(COc3ccccc3[N+](=O)[O-])o2)cc1 | 3.96%
16 | CCOC(=O)c1oc2cc(OC(C)=O)ccc2c(=O)c1-c1ccc(OC)c(OC)c1 | 6.07%
17 | CCCCc1ccc(Nc2nc(N3CCOCC3)nc(N3CCOCC3)n2)cc1.Cl | 10.6%
18 | CCOC(=O)CNC(=O)CSc1nnc(-c2ccco2)n1N | 18.4%
19 | CC(C)OC(=O)C1C(=O)CC(C)(O)C(C(=O)OC(C)C)C1c1cccc(O)c1 (stereo not shown) | 4.01%
20 | CCOc1ccc(NS(=O)(=O)c2ccc3[nH]cc(C(=O)N(CC)CC)c(=O)c3c2)cc1 | -27.1%
21 | CC(C)(C(=O)N[C@H](CO)c1ccccc1)C(=O)N[C@H](CO)c1ccccc1 | 5.64%
22 | N#C/C(=C\c1c(Cl)cccc1Cl)c1nn(-c2ccccc2)c(-n2cccc2)c1C#N | 11.7%

Row | SMILES | hERG current change (%, negative = inhibition) at 1uM
23 | CC1=C(C(=O)NCc2ccccc2)C(c2ccc(C)o2)n2ncnc2N1 (stereo not shown) | -5.48%
24 | N#CC1=C(N)Oc2n[nH]c(-c3cccs3)c2C1c1ccncc1 (stereo not shown) | 13.9%
25 | O=S(=O)(Nc1cc(S(=O)(=O)N2CCOCC2)ccc1N1CCCC1)c1cccs1 | 3.78%
26 | CCN(CC(=O)NCc1ccc(F)cc1)C(=O)c1ccc(COc2ccccc2)cc1 | -2.6%
27 | CCN(C(=O)COC(=O)c1cnc(C)cn1)c1c(N)n(Cc2ccccc2)c(=O)[nH]c1=O | 8.54%
28 | O=S(=O)(c1ccccc1)c1ccc(N2CCCCCC2)cc1 | 7.46%
29 | Cc1c(C(=O)NCc2ccccc2)oc2c1C(=O)CCC2 | 9.37%
30 | Cn1cc(CN2CCCC(CNS(=O)(=O)c3cccc4cccnc34)C2)cn1 (stereo not shown) | 11.4%
31 | COc1ccc(N(C)S(=O)(=O)c2ccc3c(c2)CCN3C(=O)C2CC2)c(OC)c1 | 14.3%
32 | CCN(CC)C(=O)CCc1nc2sc3c(c2c(=O)[nH]1)CCCC3 | 1.79%
33 | N#Cc1ncc(Cc2ccccc2)nc1C#N | 13%
34 | CCOC(=O)c1ccc(NC(=S)N2CCC(C(N)=O)(N3CCCCC3)CC2)cc1 | 8.71%
35 | Cc1[nH]c(=O)[nH]c(=O)c1S(=O)(=O)N(CC(C)C)CC(C)C | 17%
36 | CCn1c(=O)cc(OCC(=O)Nc2ccc(C)cn2)c2ccccc21 | 10%
37 | O=C(NCCCN1CCOCC1)c1ccc(CNS(=O)(=O)c2ccc(Br)cc2)cc1 | 0.752%
38 | CCn1nnc(NC(=O)c2cc(Cl)c(OC)c(Cl)c2)n1 | 1.21%
39 | Cc1ccc(C)c(N2CCN(C(=O)COc3cc(=O)n(C)c4ccccc34)CC2)c1 | 7.82%
40 | N#CCc1ccc(NC(=O)c2ccc(S(=O)(=O)N3CCCC3)cc2)cc1 | 15.4%
41 | CC1CCc2c(sc(NC(=O)CSc3nnc(-c4ccccc4)o3)c2C#N)C1 (stereo not shown) | 13.6%
42 | CCc1c(C)nc2cc(-c3cccc(Br)c3)[nH]n2c1=O | 15.5%
43 | COc1cc(-c2noc(C)c2C#Cc2nccn2C)cc(OC)c1OC | 7.03%
44 | Cc1nnc(NC(=O)C2CC(=O)N(c3ccc4c(c3)OCCO4)C2)s1 (stereo not shown) | 10.3%

Row | SMILES | hERG current change (%, negative = inhibition) at 1uM
45 | CCOc1ccc2c(c1)c(C(C)=O)c(C)n2-c1ccccc1 | 2.51%
46 | CC(C)Cc1cc(C(=O)N2CCC(N3CCC(C(=O)N4CCOCC4)CC3)CC2)n[nH]1 | -2.21%
47 | COc1cccc(CNc2ncc(C(=O)Nc3cc(OC)c(OC)c(OC)c3)c(C)n2)c1 | 14.1%
48 | C/C(=N\N=C(/N)SC1CC(=O)N(c2ccc(Cl)cc2)C1=O)c1cccs1 (stereo not shown) | 10.3%
49 | O=C(CCCc1c[nH]c2ccccc12)NCC1COc2ccccc2O1 (stereo not shown) | 10%
50 | CCn1nc2cc(C(=O)NCc3cc(C(F)(F)F)cc(C(F)(F)F)c3)ccc2c1OC | 12.2%
51 | COc1ccc(CCNC(=O)Cn2cnc3c(nnn3Cc3ccc(C)cc3)c2=O)cc1OC | 16.9%
52 | Cc1cc(OC(F)F)ccc1NC(=S)NCCc1ccccc1 | 9.68%
53 | FC(F)(F)c1cc(-c2ccccc2)nc(N2CCCCC2)n1 | 16.2%
54 | Cc1ccc(S(=O)(=O)NNC(=O)c2ccc(NC(=O)C3CC3)cc2)cc1 | 15.1%
55 | Cc1ccc(NC2CCCN(C(=O)CCN3CCOCC3)C2)cc1C (stereo not shown) | 3.95%
56 | CCc1ccc(NCCC(=O)c2ccc(Cl)cc2)cc1 | 18.6%
57 | COc1ccc2oc(C(=O)OCC(=O)Nc3cc(S(=O)(=O)N4CCOCC4)ccc3C)c(C)c2c1 | 5.19%
58 | O=C(c1ccc(F)cc1)C1CCN(C(=O)N2CCOCC2)CC1 | 4.9%
59 | COc1ccc(CC(=O)N/N=C(\C)c2ccc(Br)s2)cc1 | 14.1%
60 | O=C(O)c1ccccc1-c1nc2cc(Cl)ccc2c(=O)n1O | 16%
61 | CC(C)OC(=O)NCCOC(=O)Nc1cccc(Cl)c1 | 18.8%
62 | CCC(=O)Nc1ccc(NC(=O)c2ccc3ccccc3c2)cc1 | 11.9%
63 | O=C(c1ccccc1)c1c(O)cc(-c2ccccc2)oc1=O | 15.6%
64 | CCOC(=O)COn1c(=O)c(-c2ccc(C)cc2)[n+]([O-])c2ccccc21 | 24.3%
65 | CCN1CCN(C(c2ccccc2)c2nnnn2Cc2ccc(OC)cc2)CC1.Cl (stereo not shown) | 11.3%
66 | CCCn1c(SCC(=O)O)nc2ccccc21 | 8.03%

Row | SMILES | hERG current change (%, negative = inhibition) at 1uM
67 | O=C(c1ccccc1NS(=O)(=O)c1ccccc1)N1CCCCCC1 | 14%
68 | COc1cc2cc3c(N)c(C(=O)NCc4ccco4)sc3nc2cc1OC | 4.74%
69 | Cc1cc(N2CCOCC2)nc2ccc(NC(=O)CCC(=O)N3CCN(c4ccccc4)CC3)cc12 | 6.18%
70 | COc1ccc(C(=O)N2CCCC(N3CCN(c4ccccc4OC)CC3)C2)c(OC)n1 (stereo not shown) | 16.6%
71 | CCOC(=O)COc1nc2c(c(-c3ccco3)c1C#N)CCc1ccccc1-2 | 8.03%
72 | O=C(CCN1C(=O)C2CC=CCC2C1=O)Nc1nccs1 (stereo not shown) | 3.75%
73 | COc1ccc(OC)c(-n2c(CN3CCC(C(N)=O)CC3)nc3ccccc3c2=O)c1 | 7.22%
74 | O=C1N/C(=N/N=C/c2ccccc2)SC1(c1ccccc1)c1ccccc1 | 9.93%
75 | COc1ccc(/C=C/C(=O)NC(=S)NNC(=O)c2cc(OC)c(OC)c(OC)c2)cc1OC | 1.35%
76 | CC1CCN(S(=O)(=O)c2cccc(C(=O)N3CCN(c4ccc(F)cc4)CC3)c2)CC1 | -14%
77 | Cc1ccc(C)c(NC2=C(Cl)C(=O)OC2OC(=O)c2ccco2)c1 (stereo not shown) | 11.7%
78 | O=C(O)c1ccc(/C=N/NC(=S)NCCN2CCOCC2)cc1 | 6.73%
79 | CC(C)(C)c1ccc(C2C3=C(CCCC3=O)NC3=C2C(=O)c2ccccc23)cc1 (stereo not shown) | 12.1%
80 | O=C(O)c1ccc(NC(=S)NC2CCCCC2)cc1 | 12.2%
81 | Nn1c(CSc2ccccn2)nc2ccccc2c1=O | 7.56%
82 | COc1ccccc1-c1nnc(SCC(=O)N2CCCCC2)o1 | 10.7%
83 | O=C(NCCc1cccnc1)C1CCC(=O)N(Cc2cccc(C(F)(F)F)c2)C1 (stereo not shown) | -2.13%
84 | COc1cc(C(=O)NCC(=O)N/N=C/c2cccc(OC(=O)c3ccco3)c2)cc(OC)c1OC | 1.44%
85 | O=C(O)c1ccc(NS(=O)(=O)c2ccc(N3C(=O)CCC3=O)cc2)cc1 | 8.55%
86 | CCOc1nc(NC(C)C)nc(NC(C)C)n1 | 4.56%
87 | CC(C)CC1c2[nH]c3ccccc3c2CCN1C(=O)C1CCOCC1 (stereo not shown) | 9.82%
88 | CCn1c(SC(C)C(=O)Nc2ccc(N3CCOCC3)cc2)nnc1C1CC1 (stereo not shown) | 6.87%
